pIC50: −log10 of the molar value. By IC50 is meant the dose at which the fit gives 50% viability; a fit beyond the top or the lowest dose is shown as a bound at that dose. AUC is the area under the same curve over the 256-fold range up to the top dose, as a fraction; the more sensitive the line, the further below 1. For part of these data: Any top dose called inferred was derived from the fitted curves, not read from the paper. For part of these data: Where an entry number is given, a second screen of the drug exists; the two often differ.
Key:
Experiment in all cases: Viability of human cancer cell lines after 72 h of drug (GDSC screen)
CGP-60474 = compound: OCCCNc1cc(-c2ccnc(Nc3cccc(Cl)c3)n2)ccn1 [CGP-60474]; details: top dose 0.256 µM; top dose inferred
Experimental: (§1)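 Human cancer cell lines in 384-well plates, medium with 10% serum, drug for 72 h over a 256-fold dose range (nine 2-fold or five 4-fold steps up to the top dose). Adherent lines were fixed and stained with the nucleic acid dye Syto60, suspension lines read with resazurin; signal relative to control wells, capped at 0 and 100%. One two-parameter sigmoid per drug and line, fitted in a mixed model over all curves with the slope shared within a line.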

YM155 = compound: COCC[n+]1c2c(n(Cc3cnccn3)c1C)C(=O)c1ccccc1C2=O [YM155]; details: top dose 5.12 µM
Experimental: as §1

AMG-706 = compound: CC1(C)CNc2cc(NC(=O)c3cccnc3NCc3ccncc3)ccc21 [AMG-706]; details: top dose 2 µM; top dose inferred
Experimental: as §1

FTI-277 = compound: COC(=O)[C@H](CCSC)NC(=O)c1ccc(NC[C@@H](N)CS)cc1-c1ccccc1 [FTI-277]; details: top dose 1.024 µM; top dose inferred
Experimental: as §1

JNK Inhibitor VIII = compound: CCOc1nc(NC(=O)Cc2cc(OC)ccc2OC)cc(N)c1C#N [JNK Inhibitor VIII]; details: top dose 10 µM; top dose inferred
Experimental: as §1

Belinostat = compound: O=C(/C=C/c1cccc(S(=O)(=O)Nc2ccccc2)c1)NO [Belinostat]; details: top dose 20 µM; top dose inferred
Experimental: as §1

OSI-906 = compound: C[C@]1(O)C[C@@H](c2nc(-c3ccc4ccc(-c5ccccc5)nc4c3)c3c(N)nccn32)C1 [OSI-906]; details: top dose 2.56 µM; top dose inferred
Experimental: as §1

Docetaxel = compound: CC(=O)O[C@@]12CO[C@@H]1C[C@H](O)[C@@]1(C)C(=O)[C@H](O)C3=C(C)[C@@H](OC(=O)[C@H](O)[C@@H](NC(=O)OC(C)(C)C)c4ccccc4)C[C@@](O)([C@@H](OC(=O)c4ccccc4)[C@H]21)C3(C)C [Docetaxel]; details: top dose 0.0125 µM
Experimental: as §1

JNJ-26854165 = compound: c1ccc2c(CCNc3ccc(Nc4ccncc4)cc3)c[nH]c2c1 [JNJ-26854165]; details: top dose 10 µM
Experimental: as §1

Cyclopamine = compound: CC1=C2C[C@H]3[C@@H](CC=C4C[C@@H](O)CC[C@@]43C)[C@@H]2CC[C@]12O[C@@H]1C[C@H](C)CN[C@H]1[C@H]2C [Cyclopamine]; details: top dose 16 µM; top dose inferred
Experimental: as §1

SB-715992 = compound: Cc1ccc(C(=O)N(CCCN)[C@@H](c2nc3cc(Cl)ccc3c(=O)n2Cc2ccccc2)C(C)C)cc1 [SB-715992]; details: top dose 0.128 µM; top dose inferred
Experimental: as §1

JQ1 = compound: Cc1sc2c(c1C)C(c1ccc(Cl)cc1)=N[C@@H](CC(=O)OC(C)(C)C)c1nnc(C)n1-2 [JQ1]
Experimental: as §1

NSC-207895 = compound: CN1CCN(c2ccc([N+](=O)[O-])c3no[n+]([O-])c23)CC1 [NSC-207895]; details: top dose 20 µM; top dose inferred
Experimental: as §1

[1] = top dose 1 µM, screen: GDSC drug entry 1218, top dose inferred
[2] = top dose 2.56 µM, screen: GDSC drug entry 163

Row | Cell Line | AUC (CGP-60474) | pIC50 (CGP-60474) | AUC (YM155) | pIC50 (YM155) | AUC (AMG-706) | pIC50 (AMG-706) | AUC (FTI-277) | pIC50 (FTI-277) | AUC (JNK Inhibitor VIII) | pIC50 (JNK Inhibitor VIII) | AUC (Belinostat) | pIC50 (Belinostat) | AUC (OSI-906) | pIC50 (OSI-906) | AUC (Docetaxel) | pIC50 (Docetaxel) | AUC (JNJ-26854165) | pIC50 (JNJ-26854165) | AUC (Cyclopamine) | pIC50 (Cyclopamine) | AUC (SB-715992) | pIC50 (SB-715992) | AUC (JQ1; [1]) | pIC50 (JQ1; [1]) | AUC (JQ1; [2]) | pIC50 (JQ1; [2]) | AUC (NSC-207895) | pIC50 (NSC-207895)
1 | 8-MG-BA (glioma, adherent) | 0.708 | 7.23 | 0.021 | > 7.70 | 0.985 | < 5.70 | 0.974 | < 5.99 | 0.988 | < 5.00 | 0.442 | 6.06 | 0.957 | < 5.59 | 0.495 | 9.12 | 0.844 | 5.19 | 0.83 | 5.04 | 0.941 | < 6.89 | 0.986 | < 6.00 | 0.348 | 7.20 | 0.977 | < 4.70
2 | A3-KAW (B-cell lymphoma, suspension) | 0.53 | 7.72 | 0.076 | > 7.70 | 0.985 | < 5.70 | 0.978 | < 5.99 | 0.992 | < 5.00 | 0.268 | 6.49 | 0.965 | < 5.59 | 0.993 | < 7.90 | 0.981 | < 5.00 | 0.944 | < 4.80 | 0.679 | 7.65 | 0.507 | 7.19 | 0.394 | 7.06 | 0.864 | 4.92
3 | AM-38 (glioma, semi-adherent) | 0.962 | < 6.59 | 0.048 | > 7.70 | 0.935 | < 5.70 | 0.976 | < 5.99 | 0.961 | < 5.00 | 0.341 | 6.35 | 0.954 | < 5.59 | 0.875 | < 7.90 | 0.845 | 5.13 | 0.988 | < 4.80 | 0.78 | 7.27 | 0.987 | < 6.00 | 0.986 | < 5.59 | 0.883 | < 4.70
4 | AMO-1 (haematopoietic neoplasm, suspension) | 0.695 | 7.29 | 0.019 | > 7.70 | 0.991 | < 5.70 | 0.987 | < 5.99 | 0.991 | < 5.00 | 0.201 | 6.71 | 0.803 | 5.97 | 0.758 | 8.42 | 0.81 | 5.36 | 0.984 | < 4.80 | 0.658 | 7.69 | 0.983 | < 6.00 | 0.738 | 6.17 | 0.963 | < 4.70
5 | ARH-77 (myeloma, suspension) | 0.747 | 7.10 | 0.031 | > 7.70 | 0.972 | < 5.70 | 0.978 | < 5.99 | 0.987 | < 5.00 | 0.262 | 6.57 | 0.986 | < 5.59 | 0.987 | < 7.90 | 0.974 | < 5.00 | 0.893 | < 4.80 | 0.773 | 7.32 | 0.769 | 6.44 | 0.711 | 6.21 | 0.939 | < 4.70
6 | ATN-1 (T-cell lymphoblastic leukaemia, suspension) | 0.662 | 7.36 | 0.023 | > 7.70 | 0.988 | < 5.70 | 0.988 | < 5.99 | 0.982 | < 5.00 | 0.198 | 6.76 | 0.944 | < 5.59 | 0.613 | 8.81 | 0.689 | 5.69 | 0.935 | < 4.80 | 0.474 | 8.17 | 0.984 | < 6.00 | 0.945 | < 5.59 | 0.953 | < 4.70
7 | BE2-M17 (neuroblastoma, adherent) | 0.824 | 6.80 | 0.234 | 7.28 | 0.983 | < 5.70 | 0.983 | < 5.99 | 0.985 | < 5.00 | 0.496 | 5.91 | 0.699 | 6.23 | 0.725 | 8.46 | 0.919 | < 5.00 | 0.987 | < 4.80 | 0.834 | 7.06 | 0.734 | 6.53 | 0.777 | 5.97 | 0.906 | < 4.70
8 | BL-41 (Burkitt lymphoma, suspension) | 0.533 | 7.72 | 0.01 | > 7.70 | 0.992 | < 5.70 | 0.992 | < 5.99 | 0.994 | < 5.00 | 0.127 | 6.88 | 0.992 | < 5.59 | 0.673 | 8.68 | 0.887 | 5.18 | 0.911 | 4.88 | 0.628 | 7.78 | 0.983 | < 6.00 | 0.578 | 6.61 | 0.802 | 5.14
9 | BT-474 (breast, adherent) | 0.976 | < 6.59 | 0.237 | 7.30 | 0.986 | < 5.70 | 0.982 | < 5.99 | 0.985 | < 5.00 | 0.651 | 5.46 | 0.986 | < 5.59 | 0.902 | < 7.90 | 0.916 | < 5.00 | 0.983 | < 4.80 | 0.939 | < 6.89 | 0.984 | < 6.00 | 0.944 | < 5.59 | 0.975 | < 4.70

Source: the supplement of paper PMC4967469
